The other results are listed elsewhere or left out. At the low end of the ranking, values are background and their order means little.

This experiment concerns the target GST-SBP-SLBP (stem-loop binding protein) (UniProt Q14493). In words: targeted RNA Bind-n-Seq.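 Note: DESeq read counts versus GST-SBP nonspecific binding control pulldown.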 Conditions: RBNS binding buffer: 25 mM Tris pH 7.5, 150 mM KCl, 3 mM MgCl2, 0.1% Tween, 0.5 mg/mL BSA, 1 mM DTT; 27 nM protein, 750 pM RNA pool; temperature not stated; high values mean tight binding.
Turning to “GGUCACGUCUCAAUCAACUCUUUCCCAGGAGUUUCCUCCUGCAUAUUCAACAGCUCGCAGUCAAG”, the binding signal (log2 fold change) is -0.0724.

Regarding “GGUCACGUCUCAAUCAACUCAUCGCCCAGGGAAAUCCCUGGUAAUUUCAACAGCUCGCAGUCAAG”, the binding signal (log2 fold change) is 0.0535.

For the sequence “GGUCACGUCUCAAUCAACUCUUUCCCCAGGGAAAGCCCUGGCAAACUCAACAGCUCGCAGUCAAG”, the binding signal (log2 fold change) turned out to be 0.0199.

For the sequence “GGUCACGUCUCAAUCAACUCUAUUUCCAGGGAAAACCCUGGUUAAUUCAACAGCUCGCAGUCAAG”, the binding signal (log2 fold change) is -0.0107.

Turning to “GGUCACGUCUCAAUCAACUCUUCUCCAGGAGUUUUCUCCUGCAUUCUCAACAGCUCGCAGUCAAG”, the binding signal (log2 fold change) was -0.0846.

As to “GGUCACGUCUCAAUCAACUCAUUAGAGGGGGGGAAAACCCCUUUGCCCUCACACUCAACAGCUCGCAGUCAAG”, the binding signal (log2 fold change) was -0.211.

Turning to “GGUCACGUCUCAAUCAACUCUUCCCCCAGGGAAAACCCUGGCUAUCUCAACAGCUCGCAGUCAAG”, the binding signal (log2 fold change) is 0.213.

In the case of “GGUCACGUCUCAAUCAACUCGUUUUCAGGAGUUUUCUCCUGCAUAUUCAACAGCUCGCAGUCAAG”, the binding signal (log2 fold change) was -0.176.

“GGUCACGUCUCAAUCAACUCUUUCUCAGGAGUUUCCUCCUGCUAUCUCAACAGCUCGCAGUCAAG”: the binding signal (log2 fold change) was found to be 0.0943.

For the sequence “GGUCACGUCUCAAUCAACUCUACUUCCAGGGAAAUCCCUGGUUUAUUCAACAGCUCGCAGUCAAG”, the binding signal (log2 fold change) was -0.26.

With “GGUCACGUCUCAAUCAACUCAUCUUCCAGGGAAAGCCCUGGCUUUCUCAACAGCUCGCAGUCAAG”, the binding signal (log2 fold change) amounted to 0.425.

Turning to “GGUCACGUCUCAAUCAACUCAAUCCCAGGAGUUUCCUCCUGUAAAGUCAACAGCUCGCAGUCAAG”, the binding signal (log2 fold change) worked out at 0.0752.

On to “GGUCACGUCUCAAUCAACUCUAUUUCAGGAGUUUCCUCCUGCAAUUUCAACAGCUCGCAGUCAAG”, for which the binding signal (log2 fold change) turned out to be 0.0678.

For “GGUCACGUCUCAAUCAACUCUACUCCAGGAGUUUUCUCCUGCUUUCUCAACAGCUCGCAGUCAAG”, the binding signal (log2 fold change) came out at 0.167.

With “GGUCACGUCUCAAUCAACUCUUCCCCAGGAGUUUUCUCCUGCUAUCUCAACAGCUCGCAGUCAAG”, the binding signal (log2 fold change) was found to be 0.0907.

As to “GGUCACGUCUCAAUCAACUCAUCCUCCAGGGAAAUCCCUGGUUAUUUCAACAGCUCGCAGUCAAG”, the binding signal (log2 fold change) was determined as 0.0155.

Regarding “GGUCACGUCUCAAUCAACUCAUGUCCAGGAGUUUCCUCCUGUUAAUUCAACAGCUCGCAGUCAAG”, the binding signal (log2 fold change) was found to be 0.168.

Regarding “GGUCACGUCUCAAUCAACUCAAUCUCAGGAGUUUACUCCUGUUAAUUCAACAGCUCGCAGUCAAG”, the binding signal (log2 fold change) was 0.123.

Regarding “GGUCACGUCUCAAUCAACUCUACAGAGGGGGGGAAAACCCCUUUACCCUCCACAUCAACAGCUCGCAGUCAAG”, the binding signal (log2 fold change) was found to be 0.154.

As for “GGUCACGUCUCAAUCAACUCUACUUCAGGAGUUUCCUCCUGUAAAUUCAACAGCUCGCAGUCAAG”, the binding signal (log2 fold change) is -0.0596.

On to “GGUCACGUCUCAAUCAACUCAAUCUCAGGAGUUUGCUCCUGCUUACUCAACAGCUCGCAGUCAAG”, for which the binding signal (log2 fold change) turned out to be 0.0138.

As for “GGUCACGUCUCAAUCAACUCUUCUUCAGGAGUUUACUCCUGCAUUCUCAACAGCUCGCAGUCAAG”, the binding signal (log2 fold change) was 0.0621.

“GGUCACGUCUCAAUCAACUCACAAGAGGGGGGGAAAACCCCUUUGCCCUCAUCAUCAACAGCUCGCAGUCAAG”: the binding signal (log2 fold change) is -0.175.

For the sequence “GGUCACGUCUCAAUCAACUCAAUCUCAGGAGUUUCCUCCUGCAUAGUCAACAGCUCGCAGUCAAG”, the binding signal (log2 fold change) was -0.00463.

Turning to “GGUCACGUCUCAAUCAACUCUAUUCCCAGGGAAAACCCUGGUUUUUUCAACAGCUCGCAGUCAAG”, the binding signal (log2 fold change) is -0.0575.

In the case of “GGUCACGUCUCAAUCAACUCAUCGCCAGGAGUUUUCUCCUGUUAUCUCAACAGCUCGCAGUCAAG”, the binding signal (log2 fold change) was found to be 0.042.

For “GGUCACGUCUCAAUCAACUCAAUUCCCAGGGAAAUCCCUGGCAUUUUCAACAGCUCGCAGUCAAG”, the binding signal (log2 fold change) is -0.0589.

Take “GGUCACGUCUCAAUCAACUCUUCUCCCAGGGAAAGCCCUGGCAAACUCAACAGCUCGCAGUCAAG”: the binding signal (log2 fold change) stood at 0.187.

Turning to “GGUCACGUCUCAAUCAACUCUUCGUCAGGAGUUUUCUCCUGCUAUUUCAACAGCUCGCAGUCAAG”, the binding signal (log2 fold change) is 0.0646.

In the case of “GGUCACGUCUCAAUCAACUCAACUUCAGGAGUUUCCUCCUGUAUAUUCAACAGCUCGCAGUCAAG”, the binding signal (log2 fold change) is -0.0274.

With “GGUCACGUCUCAAUCAACUCAUCUCCCAGGGAAACCCCUGGUUAUUUCAACAGCUCGCAGUCAAG”, the binding signal (log2 fold change) was -0.161.

On to “GGUCACGUCUCAAUCAACUCAUCGUCAGGAGUUUCCUCCUGCUUAUUCAACAGCUCGCAGUCAAG”, for which the binding signal (log2 fold change) was determined as 0.143.

As for “GGUCACGUCUCAAUCAACUCAGUCCCAGGAGUUUUCUCCUGCAUUCUCAACAGCUCGCAGUCAAG”, the binding signal (log2 fold change) was -0.0238.

Consider “GGUCACGUCUCAAUCAACUCCCCAGAGGGGGGGAAAACCCCUUUACCCUCAUCGUCAACAGCUCGCAGUCAAG”, for which the binding signal (log2 fold change) was 0.0422.

With “GGUCACGUCUCAAUCAACUCAUCUCCAGGAGUUUGCUCCUGCAUAUUCAACAGCUCGCAGUCAAG”, the binding signal (log2 fold change) turned out to be 0.0514.

For “GGUCACGUCUCAAUCAACUCUUUCUCCAGGGAAAGCCCUGGCUAUUUCAACAGCUCGCAGUCAAG”, the binding signal (log2 fold change) is 0.155.

In the case of “GGUCACGUCUCAAUCAACUCUUUUCCCAGGGAAACCCCUGGUUUACUCAACAGCUCGCAGUCAAG”, the binding signal (log2 fold change) is -0.027.

For the sequence “GGUCACGUCUCAAUCAACUCUUCUCCCAGGGAAACCCCUGGCAUUCUCAACAGCUCGCAGUCAAG”, the binding signal (log2 fold change) came out at 0.304.

As to “GGUCACGUCUCAAUCAACUCAUCUUCCAGGGAAAACCCUGGUAUUUUCAACAGCUCGCAGUCAAG”, the binding signal (log2 fold change) turned out to be 0.0412.

For the sequence “GGUCACGUCUCAAUCAACUCAACUCCAGGAGUUUACUCCUGUAUUUUCAACAGCUCGCAGUCAAG”, the binding signal (log2 fold change) was -0.0849.

As for “GGUCACGUCUCAAUCAACUCUUCUCCCAGGGAAACCCCUGGCUAACUCAACAGCUCGCAGUCAAG”, the binding signal (log2 fold change) is -0.13.

Turning to “GGUCACGUCUCAAUCAACUCUUCGUCCAGGGAAACCCCUGGCAAAUUCAACAGCUCGCAGUCAAG”, the binding signal (log2 fold change) amounted to 0.0121.

“GGUCACGUCUCAAUCAACUCUUCGUCAGGAGUUUACUCCUGCAUUUUCAACAGCUCGCAGUCAAG”: the binding signal (log2 fold change) stood at 0.0339.

“GGUCACGUCUCAAUCAACUCAUUCUCAGGAGUUUUCUCCUGUUUUUUCAACAGCUCGCAGUCAAG”: the binding signal (log2 fold change) is -0.205.

For the sequence “GGUCACGUCUCAAUCAACUCAAUUCCCAGGGAAAUCCCUGGUUAAUUCAACAGCUCGCAGUCAAG”, the binding signal (log2 fold change) is 0.00888.

“GGUCACGUCUCAAUCAACUCAAUCCCCAGGGAAAACCCUGGUAUAUUCAACAGCUCGCAGUCAAG”: the binding signal (log2 fold change) was 0.0154.

As for “GGUCACGUCUCAAUCAACUCAUCGCCCAGGGAAAUCCCUGGUUAAUUCAACAGCUCGCAGUCAAG”, the binding signal (log2 fold change) was -0.116.

With “GGUCACGUCUCAAUCAACUCCAUCGAGGGGGGGAAAACCCCUUUGCCCUCAAAAUCAACAGCUCGCAGUCAAG”, the binding signal (log2 fold change) was -0.00682.

(Values after publication PMC5892938.)
